The results in this text go back to publication PMC7188849.

Sequences of proteins named here, by UniProt entry; tags and fusion partners are left off.
UniProt P38936: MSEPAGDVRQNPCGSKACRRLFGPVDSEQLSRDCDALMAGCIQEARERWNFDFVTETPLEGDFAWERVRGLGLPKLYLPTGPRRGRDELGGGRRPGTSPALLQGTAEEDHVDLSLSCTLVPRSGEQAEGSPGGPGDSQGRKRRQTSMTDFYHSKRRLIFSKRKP
UniProt Q13547: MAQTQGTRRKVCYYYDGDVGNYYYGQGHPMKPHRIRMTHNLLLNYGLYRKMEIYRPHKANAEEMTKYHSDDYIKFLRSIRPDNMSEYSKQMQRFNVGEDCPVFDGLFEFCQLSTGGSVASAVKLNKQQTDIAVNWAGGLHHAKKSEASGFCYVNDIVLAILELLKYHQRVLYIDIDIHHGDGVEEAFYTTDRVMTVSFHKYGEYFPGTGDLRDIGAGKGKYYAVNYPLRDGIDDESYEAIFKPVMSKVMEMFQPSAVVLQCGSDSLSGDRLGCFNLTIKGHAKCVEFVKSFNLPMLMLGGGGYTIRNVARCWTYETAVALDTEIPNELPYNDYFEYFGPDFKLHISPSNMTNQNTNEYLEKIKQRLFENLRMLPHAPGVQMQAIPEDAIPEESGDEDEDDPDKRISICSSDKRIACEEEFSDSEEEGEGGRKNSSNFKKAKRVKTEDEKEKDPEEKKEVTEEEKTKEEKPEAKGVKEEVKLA
UniProt O15379: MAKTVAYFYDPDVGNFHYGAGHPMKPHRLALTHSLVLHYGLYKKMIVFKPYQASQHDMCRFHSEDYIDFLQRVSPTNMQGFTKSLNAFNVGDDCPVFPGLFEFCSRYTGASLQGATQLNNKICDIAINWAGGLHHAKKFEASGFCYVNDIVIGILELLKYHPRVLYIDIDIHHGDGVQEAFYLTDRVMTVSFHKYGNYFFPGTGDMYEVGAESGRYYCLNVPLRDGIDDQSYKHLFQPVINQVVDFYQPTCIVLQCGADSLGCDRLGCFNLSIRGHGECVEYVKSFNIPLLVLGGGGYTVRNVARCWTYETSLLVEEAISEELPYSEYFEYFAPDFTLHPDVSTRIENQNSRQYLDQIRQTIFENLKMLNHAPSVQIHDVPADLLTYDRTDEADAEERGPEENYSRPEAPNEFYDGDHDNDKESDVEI

The target in experiment [1] is T1, HA-tagged FHL2 (human) (UniProt Q14192).
T1 sequence: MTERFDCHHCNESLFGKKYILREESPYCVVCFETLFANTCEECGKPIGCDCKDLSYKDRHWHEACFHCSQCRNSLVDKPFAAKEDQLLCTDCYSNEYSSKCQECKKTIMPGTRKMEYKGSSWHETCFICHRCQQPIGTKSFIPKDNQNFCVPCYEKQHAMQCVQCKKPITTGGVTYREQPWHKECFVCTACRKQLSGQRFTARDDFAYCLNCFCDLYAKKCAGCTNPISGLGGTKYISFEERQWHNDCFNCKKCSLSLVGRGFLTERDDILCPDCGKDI
Description: co-IP; HA-IP of HA-FHL2 from 293 cells cotransfected with FLAG-HDAC1; coprecipitated FLAG-HDAC1 detected with anti-FLAG.

The target in experiment [2] is T1, HA-tagged FHL2 (human). The experiment is described as follows: co-IP; competition: HA-IP of HA-FHL2 from transfected 293 T cells expressing FLAG-HDAC3 plus increasing FLAG-p57 plasmid (1/1, 2/1, 3/1 to HDAC3), or FLAG-HDAC1 with a threefold excess of p57 plasmid; blots probed with FLAG and HA antibodies.
Experiment [3] has as its target T1, HA-tagged FHL2 (human). The experiment is described as above. The source holds these as a separate data set.
Experiment [4] concerns the target T2, FLAG-tagged full-length FHL2 (human) (UniProt Q14192).
T2 sequence: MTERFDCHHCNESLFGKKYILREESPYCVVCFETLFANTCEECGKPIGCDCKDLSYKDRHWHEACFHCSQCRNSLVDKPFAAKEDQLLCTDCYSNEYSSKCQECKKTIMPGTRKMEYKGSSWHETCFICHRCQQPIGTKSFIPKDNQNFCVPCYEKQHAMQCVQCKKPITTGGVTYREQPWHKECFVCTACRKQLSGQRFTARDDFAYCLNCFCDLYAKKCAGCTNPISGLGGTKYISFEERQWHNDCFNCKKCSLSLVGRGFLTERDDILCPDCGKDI
The experiment is described as follows: co-IP; FLAG-IP of FLAG-FHL2 (mouse anti-FLAG) from lysates of transfected 293 T cells; coprecipitated HA-p57 proteins detected with anti-HA.

The target in experiment [5] is p21Cip1/Waf1 fused to the DNA binding domain of Gal4 (pAS2-1-p21) (human) (UniProt P38936). Description: two-hybrid; directed test: pACT2-FHL2 together with pAS2-1 bait plasmids in PJ69-4A; growth on -Trp/-Leu/-Ade plates.
The target in experiment [6] is T3, p57Kip2 fused to the DNA binding domain of Gal4 (pAS2-1-p57) (human) (UniProt P49918).
T3 sequence: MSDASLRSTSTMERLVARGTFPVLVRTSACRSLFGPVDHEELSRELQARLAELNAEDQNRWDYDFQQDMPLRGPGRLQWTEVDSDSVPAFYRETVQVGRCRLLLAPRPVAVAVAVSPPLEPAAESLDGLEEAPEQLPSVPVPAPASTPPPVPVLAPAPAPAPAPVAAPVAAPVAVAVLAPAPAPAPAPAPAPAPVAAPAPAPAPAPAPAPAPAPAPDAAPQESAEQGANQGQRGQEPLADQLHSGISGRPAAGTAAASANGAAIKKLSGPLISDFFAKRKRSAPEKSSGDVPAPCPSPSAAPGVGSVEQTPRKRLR
The description is as above.

Experiment [7] addresses T3, p57Kip2 fused to the DNA binding domain of Gal4 (pAS2-1-p57) (human). Description: two-hybrid; library screen: bait Gal4 DBD-p57 stably integrated in S. cerevisiae PJ69-4A, prey Human HeLa … cDNA library in pACT2; clones verified by retransformation and sequenced.
The target in experiment [8] is T4, HA-tagged p57 wildtype (human) (UniProt P49918).
T4 sequence: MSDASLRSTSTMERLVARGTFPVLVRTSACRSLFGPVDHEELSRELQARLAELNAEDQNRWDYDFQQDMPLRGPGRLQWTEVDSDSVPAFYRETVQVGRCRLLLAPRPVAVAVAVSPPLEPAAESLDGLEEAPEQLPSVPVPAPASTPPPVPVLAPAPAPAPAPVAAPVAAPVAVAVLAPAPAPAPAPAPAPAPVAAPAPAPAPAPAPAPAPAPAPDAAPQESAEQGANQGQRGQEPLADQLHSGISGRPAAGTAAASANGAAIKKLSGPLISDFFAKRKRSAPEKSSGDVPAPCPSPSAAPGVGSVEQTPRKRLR
Description: co-IP; HA-IP of HA-p57 from lysates of transfected 293 T cells, 4 hours at 4 °C, IP-buffer; bound FLAG-FHL2 proteins detected with anti-FLAG, endogenous CDKs with anti-PSTAIR.

Experiment [9] concerns the target T5, endogenous p57Kip2 (human (endogenous in HeLa and HRT-18)) (UniProt P49918).
T5 sequence: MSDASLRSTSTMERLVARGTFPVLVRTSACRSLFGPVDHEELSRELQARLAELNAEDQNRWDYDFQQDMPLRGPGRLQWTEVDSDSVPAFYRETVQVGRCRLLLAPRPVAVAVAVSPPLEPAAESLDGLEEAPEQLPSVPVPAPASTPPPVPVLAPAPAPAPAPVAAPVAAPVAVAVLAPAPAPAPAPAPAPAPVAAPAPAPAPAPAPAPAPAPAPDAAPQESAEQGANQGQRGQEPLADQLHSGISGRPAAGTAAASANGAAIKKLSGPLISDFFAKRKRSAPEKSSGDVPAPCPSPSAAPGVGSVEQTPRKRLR
The experiment is described as follows: co-IP; IP of endogenous p57 (rabbit polyclonal; rabbit IgG control IP) from the nuclear fraction of HRT-18 cells after digitonin fractionation; FHL2 detected by immunoblot. For orientation: A western blot detects proteins with antibodies after separation by electrophoresis.

Experiment [10] addresses T5, endogenous p57Kip2 (human (endogenous in HeLa and HRT-18)). Description: co-IP; IP of endogenous p57 with rabbit polyclonal p57 antibody from HeLa and HRT-18 cellular extracts, over night at 4 °C, IP-buffer (50 mM Tris pH 7.5, 150 mM NaCl, 0.5% NP-40); FHL2 detected by Western blot.

Results are given in words; binding and its absence hold for the method and conditions named. For part of these data: In cells and extracts the contact can be indirect. Some results given as binding are weak or reduced against the parent protein; the word gives no strength. For part of these data: Sequences can lack the tags named with a protein.

Take “FLAG-tagged histone deacetylase 1 (HDAC1) (from UniProt Q13547 1-482) (enzyme)”: the binding result in experiment [1] and in experiment [2] was “binds” in each case.

Turning to “FLAG-tagged HDAC3 (from UniProt O15379 1-428) (enzyme)”, in experiment [2], the binding entry is “binds”.

B1: FLAG-tagged p57 (protein, UniProt P49918 1-316)
chain: MSDASLRSTSTMERLVARGTFPVLVRTSACRSLFGPVDHEELSRELQARLAELNAEDQNRWDYDFQQDMPLRGPGRLQWTEVDSDSVPAFYRETVQVGRCRLLLAPRPVAVAVAVSPPLEPAAESLDGLEEAPEQLPSVPVPAPASTPPPVPVLAPAPAPAPAPVAAPVAAPVAVAVLAPAPAPAPAPAPAPAPVAAPAPAPAPAPAPAPAPAPAPDAAPQESAEQGANQGQRGQEPLADQLHSGISGRPAAGTAAASANGAAIKKLSGPLISDFFAKRKRSAPEKSSGDVPAPCPSPSAAPGVGSVEQTPRKRLR
Turning to B1, the binding entry in experiment [3] is recorded as “binds”.

B2: HA-p57 amino terminal truncation mutant (p57-Nt) (domain or fragment, UniProt P49918 1-125)
chain: MSDASLRSTSTMERLVARGTFPVLVRTSACRSLFGPVDHEELSRELQARLAELNAEDQNRWDYDFQQDMPLRGPGRLQWTEVDSDSVPAFYRETVQVGRCRLLLAPRPVAVAVAVSPPLEPAAES
As for B2, the binding result in experiment [4] was “binds”.

B3: HA-p57 carboxyterminal truncation mutant (p57-Ct) (domain or fragment, UniProt P49918 125-316)
chain: SLDGLEEAPEQLPSVPVPAPASTPPPVPVLAPAPAPAPAPVAAPVAAPVAVAVLAPAPAPAPAPAPAPAPVAAPAPAPAPAPAPAPAPAPAPDAAPQESAEQGANQGQRGQEPLADQLHSGISGRPAAGTAAASANGAAIKKLSGPLISDFFAKRKRSAPEKSSGDVPAPCPSPSAAPGVGSVEQTPRKRLR
Take B3: in experiment [4], the binding entry is on record as “no binding”.

B4: four-and-a-half LIM-only protein 2 (FHL2) fused to the Gal4 transactivation domain (pACT2-FHL2) (protein, UniProt Q14192 1-279)
chain: MTERFDCHHCNESLFGKKYILREESPYCVVCFETLFANTCEECGKPIGCDCKDLSYKDRHWHEACFHCSQCRNSLVDKPFAAKEDQLLCTDCYSNEYSSKCQECKKTIMPGTRKMEYKGSSWHETCFICHRCQQPIGTKSFIPKDNQNFCVPCYEKQHAMQCVQCKKPITTGGVTYREQPWHKECFVCTACRKQLSGQRFTARDDFAYCLNCFCDLYAKKCAGCTNPISGLGGTKYISFEERQWHNDCFNCKKCSLSLVGRGFLTERDDILCPDCGKDI
For B4, the values for the binding result in experiment [5], in experiment [6] and in experiment [7] were “binds weakly”, “binds” and “binds”, respectively.

B5: FLAG-tagged full-length FHL2 (protein, UniProt Q14192 1-279)
chain: MTERFDCHHCNESLFGKKYILREESPYCVVCFETLFANTCEECGKPIGCDCKDLSYKDRHWHEACFHCSQCRNSLVDKPFAAKEDQLLCTDCYSNEYSSKCQECKKTIMPGTRKMEYKGSSWHETCFICHRCQQPIGTKSFIPKDNQNFCVPCYEKQHAMQCVQCKKPITTGGVTYREQPWHKECFVCTACRKQLSGQRFTARDDFAYCLNCFCDLYAKKCAGCTNPISGLGGTKYISFEERQWHNDCFNCKKCSLSLVGRGFLTERDDILCPDCGKDI
Regarding B5, the binding entry in experiment [8] is listed as “binds”.

B6: endogenous FHL2 (protein, UniProt Q14192 1-279)
chain: MTERFDCHHCNESLFGKKYILREESPYCVVCFETLFANTCEECGKPIGCDCKDLSYKDRHWHEACFHCSQCRNSLVDKPFAAKEDQLLCTDCYSNEYSSKCQECKKTIMPGTRKMEYKGSSWHETCFICHRCQQPIGTKSFIPKDNQNFCVPCYEKQHAMQCVQCKKPITTGGVTYREQPWHKECFVCTACRKQLSGQRFTARDDFAYCLNCFCDLYAKKCAGCTNPISGLGGTKYISFEERQWHNDCFNCKKCSLSLVGRGFLTERDDILCPDCGKDI
In the case of B6, the binding result in experiment [9] and in [10] was “binds” each time.
